In patent publication US20080200461A1, “MODULATORS OF ACETYL-COENZYME A CARBOXYLASE AND METHODS OF USE THEREOF” (Cropsolution, Inc., priority 2007, published 2008):

Biological target: yeast BC domain containing a K73R mutation (Saccharomyces cerevisiae, UniProt Q00955, K73R)
Type: binding
Description: The soraphen binding pocket contains a tryptophan residue. Thus, tryptophan fluorescence may be used to directly monitor binding of a ligand to this site. […] We conducted a similar assay in a 96-well format. Briefly, 200 nM protein in 100 mM Tris pH 8 containing 100 mM NaCl and 0.01% Tween 20 (v/v) was incubated in the presence of various amounts of test compounds dissolved in DMSO (1% v/v final concentration). Tryptophan fluorescence at […] was measured in a Pherastar plate reader (BMG Labtech) using 280 nm excitation.

Structure (SMILES) | Effect on tryptophan fluorescence of yeast BC domain containing K73R mutation
CO[C@H]1CCCC[C@@H](c2ccccc2)OC(=O)[C@@H](C)[C@@]2(O)O[C@H]([C@@H](C)[C@H](O)[C@H]2OC)[C@@H](C)/C=C/[C@H]1OC [soraphen A, Soraphen A, reference compound] | no effect
CC[N+](CC)(CCCCN(Cc1cc(C)cc(C)c1)Cc1cc(C)cc(C)c1)Cc1cc(C)cc(C)c1.[Br-] [Compound 28, Diethyl(3,5-dimethylbenzyl)[bis-(3,5-dimethylbenzyl)aminobutyl]ammonium formate] | no effect
